In US20260184804A1 (KEY2BRAIN, published 2026):

Columns and labels:
[1] = target: T1, His-tagged ectodomain of human transferrin receptor 1 (hTfR1), amino acids R121-F760 (human, UniProt P02786 partial chain); test: SPR; KD of Table 4 against KD of Table 2
T1 construct: Made in CHO cells, purified by IMAC; also called human TfR1; ectodomain of hTfR1

[2] = target: T2, Apical domain construct of hTfR1 displayed on M13 phage (human); test: Seqitope mutagenic scanning of the phage-displayed apical domain of hTfR1
T2 construct: also called hTfR1-apical; apical domain of hTfR1; not shown: M13 phage coat protein of phagemid pTG3 to which the domain is fused
T2 chain: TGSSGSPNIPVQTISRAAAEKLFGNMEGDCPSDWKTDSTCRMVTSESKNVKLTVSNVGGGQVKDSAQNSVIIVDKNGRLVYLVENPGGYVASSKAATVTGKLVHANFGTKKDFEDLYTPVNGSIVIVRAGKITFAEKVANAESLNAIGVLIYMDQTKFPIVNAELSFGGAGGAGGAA

[3] = target: T3, His-tagged ectodomain of mouse transferrin receptor 1 (mTfR1), amino acids S122-F763 (mouse, UniProt Q62351 partial chain); test: SPR (Biacore T200); binder captured on protein A chip, mTfR1 as analyte
T3 construct: Made in CHO cells; also called mouse TfR1

[4] = target: T1, His-tagged ectodomain of human …; test: SPR; binder captured on protein A, receptor as analyte 0.156-40 nM; no hTf
[5] = target: T4, His-tagged ectodomain of cynomolgus transferrin receptor 1 (cTfR1), amino acids R121-F760 (cynomolgus monkey, UniProt Q5RDH6 121-760 (Pongo abelii entry)); test: as above
T4 construct: Made in CHO cells; also called cynomolgus TfR1; cynomolgus monkey TfR1
T4 chain: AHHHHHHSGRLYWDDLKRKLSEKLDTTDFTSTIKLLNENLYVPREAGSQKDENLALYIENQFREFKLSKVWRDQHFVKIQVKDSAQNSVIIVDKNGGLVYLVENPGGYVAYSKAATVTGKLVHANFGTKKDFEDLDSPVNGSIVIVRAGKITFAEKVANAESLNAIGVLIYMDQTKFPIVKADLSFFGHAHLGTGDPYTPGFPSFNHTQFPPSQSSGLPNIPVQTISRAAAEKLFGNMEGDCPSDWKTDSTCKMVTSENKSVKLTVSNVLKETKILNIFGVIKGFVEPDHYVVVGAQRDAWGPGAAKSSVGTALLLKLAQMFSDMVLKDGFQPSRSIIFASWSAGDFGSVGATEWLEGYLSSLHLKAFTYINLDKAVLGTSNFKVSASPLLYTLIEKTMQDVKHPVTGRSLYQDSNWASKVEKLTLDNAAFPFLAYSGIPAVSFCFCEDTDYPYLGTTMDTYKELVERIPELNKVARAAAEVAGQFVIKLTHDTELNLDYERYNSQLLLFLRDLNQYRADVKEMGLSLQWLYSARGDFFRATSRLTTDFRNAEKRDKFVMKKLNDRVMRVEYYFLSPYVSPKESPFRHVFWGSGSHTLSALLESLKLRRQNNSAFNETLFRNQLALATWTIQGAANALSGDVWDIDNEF

[6] = target: T1, His-tagged ectodomain of human …; test: SPR (Biacore T200); binder captured on protein A chip, TfR1 ectodomain as analyte 0.16-100 nM
[7] = target: T1, His-tagged ectodomain of human …; test: SPR; binder captured on protein A, receptor as analyte 0.156-40 nM; with 250 nM hTf
[8] = target: T4, His-tagged ectodomain of cynomolgus …; test: as above
[9] = target: T1, His-tagged ectodomain of human …; test: SPR (Biacore 8K); VHH-Fc captured on protein A chip, hTfR1 as analyte
[10] = target: T1, His-tagged ectodomain of human …; test: SPR (Biacore 8K, single-cycle); VHH-Fc captured on protein A chip, hTfR1 as analyte 0.8-500 nM
[11] = target: T2, Apical domain construct of hTfR1 …; test: ELISA 'Binding to Apical-M13': plate coated with the construct, M13 phage displaying the apical domain of hTfR1 added, anti-M13-HRP detection (the legend calls this panel 8B)
[12] = target: T2, Apical domain construct of hTfR1 …; test: ELISA 'Binding to Apical-M13': plate coated with the construct, M13 phage displaying the apical domain of hTfR1 added, anti-M13-HRP detection
[13] = target: T3, His-tagged ectodomain of mouse …; test: SPR (Biacore T200); binder captured on protein A chip, TfR1 ectodomain as analyte 0.16-100 nM

T3 sequence (Q62351 other isoform, or with tags, fused parts or gaps limits assumed): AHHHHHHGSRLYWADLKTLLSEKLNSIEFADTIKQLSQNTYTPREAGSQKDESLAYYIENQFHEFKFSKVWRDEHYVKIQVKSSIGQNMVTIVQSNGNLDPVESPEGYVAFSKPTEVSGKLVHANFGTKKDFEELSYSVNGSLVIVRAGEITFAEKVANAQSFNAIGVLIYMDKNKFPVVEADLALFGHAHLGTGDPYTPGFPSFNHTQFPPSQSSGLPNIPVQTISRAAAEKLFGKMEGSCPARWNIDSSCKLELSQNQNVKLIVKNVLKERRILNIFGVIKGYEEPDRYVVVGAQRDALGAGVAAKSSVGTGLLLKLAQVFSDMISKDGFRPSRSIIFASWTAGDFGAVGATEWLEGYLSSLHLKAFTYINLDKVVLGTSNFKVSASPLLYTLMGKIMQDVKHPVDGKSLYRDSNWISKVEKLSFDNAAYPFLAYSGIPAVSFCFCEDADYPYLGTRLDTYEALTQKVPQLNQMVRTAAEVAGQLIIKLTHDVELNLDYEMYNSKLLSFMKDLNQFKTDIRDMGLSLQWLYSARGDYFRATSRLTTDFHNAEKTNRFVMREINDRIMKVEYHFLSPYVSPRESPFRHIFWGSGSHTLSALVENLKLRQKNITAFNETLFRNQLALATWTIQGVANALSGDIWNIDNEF

B1: KB_A01 Fc fusion (dimeric VHH-Fc with human IgG1 Fc) (Fc fusion)
chain: QVQLQESGGGSVQAGGSLSLSCAASGSIFGSKRMGWFRQAPGEQRDVVATITYRGTTEYADSVKGRFTISRDNAKNTVYLQMNNLKPEDTAVYYCWMFTTDNYWGQGTQVTVSSGG[human IgG1 Fc not written out]
For B1, the “fold higher affinity than the free monomeric KB_A01” value [1] was 23 fold, the “Binding Ratio (BR) of residue D242” value [2] was 2.08 and the “Binding Ratio (BR) of residue D245” value [2] was 2.2. For the same binder, the “Binding Ratio (BR) of residue D356” value [2] was 1.42, the “Binding Ratio (BR) of residue G351” value [2] was 2.14 and the “Binding Ratio (BR) of residue L246” value [2] was 2.2. The “Binding Ratio (BR) of residue P354” value [2] was 2.45, the “Binding Ratio (BR) of residue R364” value [2] was 1.74 and the binding result [3] was “no binding (tested: 0.16 to 100 nM)”. The Kd [4] was 81 pM, the koff [4] was 6.49e-05 s⁻¹ and the kon [4] was 801000 M⁻¹ s⁻¹. The Kd [5] was 403 pM, the koff [5] was 7.5e-05 s⁻¹ and the kon [5] was 186000 M⁻¹ s⁻¹. It also gave a Kd [6] of 177 pM, a koff [6] of 8.49e-05 s⁻¹ and a kon [6] of 476000 M⁻¹ s⁻¹. For the same binder, the Kd [7] was 206 pM, the koff [7] was 6.03e-05 s⁻¹ and the kon [7] was 293000 M⁻¹ s⁻¹. The Kd [8] was 189 pM, the koff [8] was 2.86e-05 s⁻¹ and the kon [8] was 151000 M⁻¹ s⁻¹.

B2: KB_A02 Fc fusion (Fc fusion)
chain: B1 chain with S31F, K32N, R33A
notes: also called KB_0A2
B2: no binding (tested: 0.8 to 500 nM) [9].

B3: KB_A03 Fc fusion (Fc fusion)
chain: B1 chain with T52A, Y53V, R54A, T56S
In the case of B3, the “Binding Ratio (BR) of residue D242” value [2] is reported as 1.76, the “Binding Ratio (BR) of residue D245” value [2] is reported as 1.64 and the “Binding Ratio (BR) of residue D356” value [2] is reported as 2.24. For the same binder, the “Binding Ratio (BR) of residue G351” value [2] was 1.56, the “Binding Ratio (BR) of residue L246” value [2] was 1.55 and the “Binding Ratio (BR) of residue P354” value [2] was 1.94. The “Binding Ratio (BR) of residue S355” value [2] was 1.54, the Kd [10] was 3620 pM and the koff [10] was 0.000992 s⁻¹. The kon [10] was 274000 M⁻¹ s⁻¹.

B4: KB_A04 Fc fusion (Fc fusion)
chain: B1 chain with F98Y, T99A, D101A
Binder B4 has a Kd [10] of 414 pM, a koff [10] of 0.000119 s⁻¹ and a kon [10] of 287000 M⁻¹ s⁻¹. B4: binds [11].

B5: KB_A05 Fc fusion (Fc fusion)
chain: B1 chain with S31F, K32N, R33A, T52A, Y53V, R54A, T56S
B5: no binding (tested: 0.8 to 500 nM) [9].

B6: KB_A06 Fc fusion (Fc fusion)
chain: B1 chain with S31F, K32N, R33A, F98Y, T99A, D101A
With B6 the Kd [10] was 5120 pM, the koff [10] was 0.000353 s⁻¹ and the kon [10] was 69000 M⁻¹ s⁻¹.

B7: KB_A07 Fc fusion (Fc fusion)
chain: B1 chain with T52A, Y53V, R54A, F98Y, T99A, D101A
Work on B7 yielded a Kd [10] of 699 pM, a koff [10] of 0.000108 s⁻¹ and a kon [10] of 154000 M⁻¹ s⁻¹.

B8: KB_A08 Fc fusion (Fc fusion)
chain: B1 chain with S31F, K32N, R33A, T52A, Y53V, R54A, T56S, F98Y, T99A, D101A
B8: no binding (tested: 0.8 to 500 nM) [9].

B9: KB_A09 Fc fusion (Fc fusion)
chain: B1 chain with S11L, S27D, F29N, E43K, Q44A, Y53V, A60E, N84S, D101T
B9 was tested, and the “Binding Ratio (BR) of residue D242” value [2] was 2.87, the “Binding Ratio (BR) of residue D245” value [2] was 3.59 and the “Binding Ratio (BR) of residue D356” value [2] was 3.95. For the same binder, the “Binding Ratio (BR) of residue G351” value [2] was 3.2, the “Binding Ratio (BR) of residue L246” value [2] was 2.82 and the “Binding Ratio (BR) of residue P354” value [2] was 3.51. For the same binder, the “Binding Ratio (BR) of residue S355” value [2] was 2.24, the Kd [10] was 150 pM and the koff [10] was 6.09e-05 s⁻¹. It also gave a kon [10] of 405000 M⁻¹ s⁻¹.

B10: KB_A10 Fc fusion (Fc fusion)
chain: B1 chain with S19R, G26E, S27I, E43K, V47L, R54H, E58K, K75N, V92F
Binder B10 has a Kd [10] of 1840 pM, a koff [10] of 0.00011 s⁻¹ and a kon [10] of 59400 M⁻¹ s⁻¹.

B11: KB_A11 Fc fusion (Fc fusion)
chain: B1 chain with S11L, S27D, E43Q, Y53V, R54G, N84S, D101N
Work on B11 yielded a Kd [10] of 242 pM, a koff [10] of 8.76e-05 s⁻¹ and a kon [10] of 362000 M⁻¹ s⁻¹. B11: binds [11].

B12: BV, benchmark VHH (WO 2020/144233) fused to human IgG1 Fc (Fc fusion)
chain: EVQLVESGGGVVQPGGSLKLSCVASGTDFSINFIRWYRQAPGKQREFVAGFTATGNTNYADSMKGRFTISRDNTKNAVYLQIDSLKPEDTAVYYCYMLDKWGQGTQVTVSSGG[human IgG1 Fc not written out]
notes: also called BV-Fc; benchmark VHH-Fc
For B12, the binding result [12] was “no binding (tested: not shown on the sheet)”, the Kd [4] was 0.531 pM and the koff [4] was 2.86e-07 s⁻¹. For the same binder, the kon [4] was 538000 M⁻¹ s⁻¹, the Kd [6] was 2.28 pM and the koff [6] was 1.26e-06 s⁻¹. The kon [6] was 551000 M⁻¹ s⁻¹, the Kd [13] was 444 pM and the koff [13] was 0.00017 s⁻¹. The kon [13] was 382000 M⁻¹ s⁻¹, the Kd [7] was 207 pM and the koff [7] was 0.000113 s⁻¹. It also gave a kon [7] of 549000 M⁻¹ s⁻¹.

Changes are numbered by the printed parent chain.
